Experimental data reported in paper PMC5303829, “A CAF40-binding motif facilitates recruitment of the CCR4-NOT complex to mRNAs targeted by Drosophila Roquin” (Nature Communications, 2017).
Numbering of substitutions follows the chain as printed. Results are given in words; binding and its absence hold for the method and conditions named. Binding seen in cells or lysates may run through a third protein. Some entries that bind do so weakly or less than the wild type. Where a sequence is shown, tags or fusion partners need not be part of it.

The chains behind the UniProt entries cited, without tags or fusion partners.
UniProt Q7JVP2: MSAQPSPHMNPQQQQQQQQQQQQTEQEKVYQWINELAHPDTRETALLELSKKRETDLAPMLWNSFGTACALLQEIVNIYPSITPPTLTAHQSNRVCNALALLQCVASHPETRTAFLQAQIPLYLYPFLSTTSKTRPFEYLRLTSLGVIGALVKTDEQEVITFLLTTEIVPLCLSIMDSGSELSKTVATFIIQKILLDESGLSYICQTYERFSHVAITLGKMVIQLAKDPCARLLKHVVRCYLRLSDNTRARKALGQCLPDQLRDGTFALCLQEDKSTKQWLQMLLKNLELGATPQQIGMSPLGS

How the values were obtained:
Assay in all cases: co-IP; GFP-tagged Dm Roquin and HA-tagged CAF40 co-expressed in Dm S2 cells in the presence of HA-tagged CN9BD; lysates treated with RNase A (Fig. 5)
[1] = biological target: T1, GFP-tagged Dm Roquin ΔNBM (Drosophila melanogaster) (UniProt Q9VV48)
T1 sequence: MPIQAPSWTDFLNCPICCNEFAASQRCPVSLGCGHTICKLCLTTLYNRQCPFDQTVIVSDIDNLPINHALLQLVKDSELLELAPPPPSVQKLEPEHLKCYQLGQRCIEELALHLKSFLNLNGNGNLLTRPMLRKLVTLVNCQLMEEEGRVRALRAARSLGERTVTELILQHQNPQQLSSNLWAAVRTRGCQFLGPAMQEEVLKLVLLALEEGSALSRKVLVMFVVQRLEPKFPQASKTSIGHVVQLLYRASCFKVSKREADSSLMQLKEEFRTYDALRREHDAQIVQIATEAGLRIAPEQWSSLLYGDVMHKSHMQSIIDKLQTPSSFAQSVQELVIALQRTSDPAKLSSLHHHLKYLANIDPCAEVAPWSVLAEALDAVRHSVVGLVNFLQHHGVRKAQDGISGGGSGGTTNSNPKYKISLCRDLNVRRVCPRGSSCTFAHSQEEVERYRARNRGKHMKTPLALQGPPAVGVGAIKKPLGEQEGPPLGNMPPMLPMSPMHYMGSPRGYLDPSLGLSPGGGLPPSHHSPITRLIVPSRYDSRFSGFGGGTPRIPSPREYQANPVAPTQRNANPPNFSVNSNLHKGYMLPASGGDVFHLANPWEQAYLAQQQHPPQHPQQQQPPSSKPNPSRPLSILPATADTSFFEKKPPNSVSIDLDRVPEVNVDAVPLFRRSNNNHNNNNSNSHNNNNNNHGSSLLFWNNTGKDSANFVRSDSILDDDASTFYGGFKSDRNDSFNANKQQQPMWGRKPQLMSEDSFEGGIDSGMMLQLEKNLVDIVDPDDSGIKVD

[2] = biological target: T2, GFP-tagged Dm Roquin M2 mutant (Drosophila melanogaster) (UniProt Q9VV48)
T2 sequence: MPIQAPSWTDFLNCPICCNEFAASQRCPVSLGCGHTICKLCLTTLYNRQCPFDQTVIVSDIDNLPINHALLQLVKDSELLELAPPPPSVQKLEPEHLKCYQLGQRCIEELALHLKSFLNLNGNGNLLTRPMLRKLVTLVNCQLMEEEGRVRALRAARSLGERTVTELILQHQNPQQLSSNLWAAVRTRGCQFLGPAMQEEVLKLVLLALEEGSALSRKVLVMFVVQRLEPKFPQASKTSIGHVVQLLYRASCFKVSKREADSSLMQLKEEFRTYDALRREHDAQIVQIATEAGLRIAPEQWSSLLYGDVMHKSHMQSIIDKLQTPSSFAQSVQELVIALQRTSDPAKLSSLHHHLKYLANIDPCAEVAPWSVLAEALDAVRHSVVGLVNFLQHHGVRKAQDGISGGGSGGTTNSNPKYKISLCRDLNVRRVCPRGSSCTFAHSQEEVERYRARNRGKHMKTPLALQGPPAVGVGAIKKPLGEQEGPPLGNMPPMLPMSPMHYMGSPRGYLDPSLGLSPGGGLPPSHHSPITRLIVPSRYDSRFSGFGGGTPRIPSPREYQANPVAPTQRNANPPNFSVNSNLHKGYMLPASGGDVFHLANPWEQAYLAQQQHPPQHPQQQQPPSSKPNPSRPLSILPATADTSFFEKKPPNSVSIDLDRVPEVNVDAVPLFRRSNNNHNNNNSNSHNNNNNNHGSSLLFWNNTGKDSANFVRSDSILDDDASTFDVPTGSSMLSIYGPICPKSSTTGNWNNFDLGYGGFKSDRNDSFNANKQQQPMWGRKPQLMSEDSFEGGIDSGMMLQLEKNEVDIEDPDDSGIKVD

[3] = biological target: T3, GFP-tagged Dm Roquin M4 mutant (Drosophila melanogaster) (UniProt Q9VV48)
T3 sequence: T2 sequence with I793E, L801E

binding [1]: binds
binding [2]: no binding
binding [3]: no binding
Substance: HA-tagged Dm CAF40 (full-length, wild-type) (from UniProt Q7JVP2 1-304)
